# Reference: PubChem BioAssay AID624296 (National Center for Advancing Translational Sciences (NCATS), 2012)
# Where “and” joins values, the source holds several entries; their conditions need not be identical. Identical values can stand only once. The campaign covered roughly 350,000 compounds. About 9,900 (2.8%) were called active. The inconclusive results got no clear call from the source; some entries with a clear call stand among them for comparison. Calls come from the whole dose curve; as a rule, active = well fitted activation curve with a large enough effect; inconclusive = small, poorly fitted or top-dose-only effect; inactive = no such curve, though single readings can be large or run the other way. Potencies of inconclusive entries are doubtful fits and often do not repeat.
# Experiment: A quantitative high throughput screen for small molecules that induce DNA re-replication in MCF 10a normal breast cells. Note: nearly all actives have a fitted effect of over 50% in size.
# Settings: MCF 10A DNA re-replication, Hoechst nuclear intensity, 48 h; series mostly up to 46.1 µM
# Potency is the fitted concentration of half-maximal effect; tags give direction and shape of the fitted curve.
row,Compound,Potency
1,O=C(COc1ccccc1Cl)Nc1ccccc1C(=O)N1CCOCC1,"inconclusive: 2.91 µM [activator, single point]"
2,O=C(COc1cccnc1[N+](=O)[O-])NCc1cccs1,"inconclusive: 29.1 µM [activator, single point]"
3,CCn1c(=O)c(C(=O)NNC(=O)c2ccccc2F)c(O)c2ccccc21,"inconclusive: 29.1 µM [activator, single point]"
4,CC1CCc2nc3ccc(S(=O)(=O)N4CCC(C(=O)NC(C)c5ccccc5)CC4)cc3c(C(=O)O)c2C1 (stereo not given),inactive
5,CCn1cnc2c1c(=O)n(CC(=O)Nc1ccc(C(N)=O)cc1)c(=O)n2Cc1ccccc1,inactive
6,CCOc1ccccc1N(C)C(=O)C1CCN(S(=O)(=O)c2cccc3nonc23)CC1,inactive
7,CC(C)(C)c1ccc(C(=O)Nc2nnc(SCC(=O)NCC3CCCO3)s2)cc1 (stereo not given),inactive
8,C/C(=N\Nc1cc(-c2ccccc2)nc(-c2ccccc2)n1)c1ccc(O)c(C)c1,active: 7.31 µM
9,O=[N+]([O-])c1ccc(Sc2n[nH]c(-c3ccc(Cl)cc3Cl)n2)nc1,"inconclusive: 29.1 µM [activator, partial curve, poor fit]"
10,CC(C)(C)NC(=O)NC(=O)COC(=O)c1cc(=O)[nH]c2ccccc12,"inconclusive: 25.9 µM [activator, single point]"
11,Cc1ccc(NC(=O)CSc2nnc(CNC(=O)C34CC5CC(CC(C5)C3)C4)n2-c2ccc(F)cc2)cc1,"inconclusive: 29.1 µM [activator, single point]"
12,C[n+]1ccc(/C=C/c2cccs2)cc1,inactive
13,CN(C)c1ccc(-c2n(C)c3ccccc3[n+]2C)cc1,"inconclusive: 20.6 µM [activator, single point]"
14,Cc1ccc(NC(=O)CN2C(=O)NC(C)(c3ccc(Cl)cc3)C2=O)cc1S(=O)(=O)N1CCOCC1 (stereo not given),"inconclusive: 29.1 µM [activator, single point]"
15,CC1CN(C(=O)c2cc(S(=O)(=O)N3CCCCC3)ccc2Cl)CC(C)O1 (stereo not given),inactive
16,CCn1c2ccccc2c2cc(NC(=O)CSc3nnc(-c4cccc(F)c4)o3)ccc21,active: 5.17 µM
17,COc1ccc(C2=NOC(C(=O)N3CCCc4ccccc43)C2)cc1 (stereo not given),"inconclusive: 6.51 µM [activator, single point]"
18,COC(=O)CSc1nc(-c2ccc(C)cc2)c2c(c1C#N)CCCC2,"inconclusive: 23.1 µM [activator, single point]"
19,CCCC(=O)Nc1nc2ccc(OC)cc2s1,inactive
20,COc1ccc(CCNC(=O)c2cc(-c3cc(C)ccc3O)n[nH]2)cc1OC,"inconclusive: 11.6 µM [activator, partial curve, poor fit]"
21,COc1cccc(C(=O)OCn2nnc3ccccc3c2=O)c1,"inconclusive: 32.6 µM [activator, partial curve, poor fit]"
22,CC(C)c1nc(N2CCN(C(=O)c3ccco3)CC2)c(C#N)c2c1COC(C)(C)C2,"inconclusive: 29.1 µM [activator, single point]"
23,Cc1cc(/C=N/n2cnnc2)c(O)c([N+](=O)[O-])c1,"inconclusive: 18.4 µM [activator, single point]"
24,Cc1cccc(N2CCN(S(=O)(=O)c3c(C)noc3/C=C/N(C)C)CC2)c1C,"inconclusive: 0.651 µM [activator, full curve]"

row,Compound,Potency
1,CCOc1ccc(Oc2c(/C=N/NC(=O)COc3ccccc3OC)c(C)nn2-c2ccccc2)cc1,"inconclusive: 23.1 µM [activator, single point]"
2,CC1(C)Cc2ccccc2C(N/N=C/c2ccc(Cl)cc2)=N1,"inconclusive: 18.4 µM [activator, single point]"
3,CCOC(=O)N1CCC(N(CCN(C)C)C(=S)Nc2ccccc2OCC)CC1,inactive
4,Cc1ccc(S(=O)(=O)N2CCCCC2)cc1NC(=O)CNC(C)c1ccc(Cl)c(Cl)c1 (stereo not given),inactive
5,COc1cc(C(F)(F)F)ccc1C(=O)NCCc1ccco1,inactive
6,COc1ccc(CNCCCn2cnc3c(OCc4ccccc4)ncnc32)cc1,inactive
7,CCN(C(=O)c1ccc(C)c(Br)c1)c1ccccc1,"inconclusive: 32.6 µM [activator, single point]"
8,COC(=O)c1ccc(NC(=O)c2cccc(C)c2)cc1,"inconclusive: 4.11 µM [activator, partial curve, poor fit]"
9,Cc1ccccc1NC(=O)Cn1c(NCC(C)O)nc2ccccc21 (stereo not given),inactive
10,COc1ccc(/C=C/C(=O)Nc2ccccc2Cl)cc1S(=O)(=O)N1CCOCC1,inactive
11,CCC(CO)Nc1nc2ccc(Cl)cc2c2ccccc12 (stereo not given),"inconclusive: 23.1 µM [activator, partial curve, poor fit]"
12,O=C(c1cnn2c(C(F)(F)F)cc(-c3ccc(Br)cc3)nc12)N1CCOCC1,inactive
13,CC(Oc1ccccc1)C(=O)Nc1ccc(C(N)=O)cc1 (stereo not given),"inconclusive: 0.0046 µM [activator, full curve, poor fit]"
14,C/C(=C\c1ccccc1)CN1CCN(Cc2ccc(C)o2)C(CCO)C1 (stereo not given),inactive
15,Cc1cc(C)c([N+](=O)[O-])cc1NCC(=O)N1CCN(c2ccccc2)CC1,inactive
16,Cc1cccc(OC(=O)n2c(=S)oc3cc(Cl)ccc32)c1,"inconclusive: 29.1 µM [activator, single point]"
17,O=[N+]([O-])c1ccc(CSC2=NCCN2)cc1,"inconclusive: 29.1 µM [activator, single point]"
18,NC(=O)c1ccccc1OCC(=O)N1CCC(Cc2ccccc2)CC1,inactive
19,COc1ccc(NC(=O)c2ccc(Cl)nc2)cc1S(=O)(=O)N1CCCCC1,"inconclusive: 20.6 µM [activator, single point]"
20,OCCN1CCN(CC/C=C2/c3ccccc3Sc3ccc(C(F)(F)F)cc32)CC1,"inconclusive: 26.6 µM [activator, partial curve, poor fit] and inconclusive: 8.2 µM [activator, single point]"
21,O=C(NC(NNc1ccc([N+](=O)[O-])cc1)(C(F)(F)F)C(F)(F)F)c1ccc(F)cc1,"inconclusive: 29.1 µM [activator, single point]"
22,CCOC(=O)C1(CCOc2ccccc2)CCN(CC(O)CO)CC1 (stereo not given),"inconclusive: 20.6 µM [activator, partial curve, poor fit]"
23,COc1cccc(N2CCN(CC(=O)NC(=O)NC3CCCCC3)CC2)c1,inactive
24,COc1ccc(F)cc1C(=O)C1CCCN(Cc2cn(C)c3ccccc23)C1 (stereo not given),active: 9.2 µM

row,Compound,Potency
1,COc1cc2c(oc(=O)c3cc(C)cc(OC)c32)c2c(C3OC(C)C(O)C(C)(O)C3O)ccc(O)c12 (stereo not given),inactive
2,CN(C)S(=O)(=O)c1ccc(NC(=O)COC(=O)C2CC3CCCC(C2)C3=O)cc1 (stereo not given),"inconclusive: 0.103 µM [activator, full curve, poor fit]"
3,Cc1cc(Cl)n2nc(C)c(-c3ccc(Cl)cc3)c2n1,active: 16.4 µM
4,CCc1nnc(NC(=O)C2CCN(c3cnccn3)CC2)s1,inactive
5,CC1(C)c2ccccc2-c2nc3ccccc3cc2C1N1CCOCC1 (stereo not given),"inconclusive: 25.9 µM [activator, single point]"
6,COc1cccc(CNC(=O)CCS(=O)(=O)c2cccs2)c1,inactive
7,COc1cc(OC)c(OC)cc1CNCCNC(=O)c1ccco1,inactive
8,COc1ccc(Cc2noc(-c3ccc(C)cc3)n2)cc1,inactive
9,O=C(N/N=C/c1ccccc1OC(=O)c1ccc2c(c1)OCO2)c1cccc(F)c1,"inconclusive: 20.6 µM [activator, single point]"
10,COc1ccc(COc2cc(-c3cccc(OC)c3)nc3ccc(NC(=O)c4ccc(Cl)cc4)cc23)cc1,active: 25.9 µM
11,CCOc1ccc(C(=O)CCNC(Cc2cnc[nH]2)C(=O)O)cc1 (stereo not given),"inconclusive: 23.1 µM [activator, partial curve, poor fit]"
12,Cc1csc(C(C)N(C)C(=O)c2ccc(OC3CCN(Cc4ccccn4)CC3)cc2)n1 (stereo not given),inactive
13,C=CCn1c(SCC(=O)Nc2sc3c(c2C#N)CCC(C)C3)nc2cc(C(=O)O)ccc2c1=O (stereo not given),"inconclusive: 18.4 µM [activator, single point]"
14,Cc1cc(NC(=O)CN(C)CC(=O)Nc2ccc(Cl)c(C(F)(F)F)c2)no1,"inconclusive: 29.1 µM [activator, single point]"
15,O=C(C1CCN(S(=O)(=O)c2cccc3nsnc23)CC1)N1CCc2ccccc21,"inconclusive: 29.1 µM [activator, partial curve, poor fit]"
16,COc1ccccc1CN1C(=S)SC(C)(C)C1NO (stereo not given),"inconclusive: 25.9 µM [activator, single point]"
17,Cc1ccc(S(=O)(=O)N2[C@@H](c3cccc(Cl)c3)C(C(=O)O)=CC[C@H]2c2ccc(Cl)cc2)cc1,"inconclusive: 32.6 µM [activator, partial curve, poor fit]"
18,Cc1ccc(-n2ccc(=O)c(-c3ccnc(SCc4cccc(Cl)c4)n3)n2)cc1,"inconclusive: 29.1 µM [activator, single point]"
19,Cc1ccc(S(=O)(=O)N2CCCCC2)cc1NC(=O)COC(=O)c1ccc2c(c1)OCO2,"inconclusive: 29.1 µM [activator, single point]"
20,S=C(NN=Cc1ccc2c(c1)OCO2)NN=Cc1ccc2c(c1)OCO2,inactive
21,Cc1ccc2nc(N(CCCN(C)C)C(=O)c3ccc(S(=O)(=O)N4CCc5ccccc5C4)cc3)sc2c1,active: 5.17 µM
22,COC(=O)/C(=C\c1ccc(O)cc1)c1nc2ccccc2[nH]1,active: 16.4 µM
